# Measured values: the supplement of paper PMC11417369
# ± gives the standard deviation of the averaged measurements. Some of the results follow.
# Test system: PfAP2-EXP AP2 domain (GST-tagged)
# Test: gcPBM binding intensity (ln(normalized median fluorescence intensity)); higher = stronger DNA binding
# In short: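 DNA-binding domains from P. falciparum, fused to GST and produced in E. coli, were put on an Agilent 4 × 180k double-stranded probe array for 1 h in 1× PBS holding 1% milk, 0.2 mg/ml BSA, 0.5% salmon testes DNA and 0.03% Triton X-100. Probes were primer-extended, 36 bp long and drawn from intergenic genomic regions, with negative controls included. After Alexa488 anti-GST antibody detection and a 488 nm scan, binding intensity was set as the highest Masliner-normalised natural-log median intensity across replicate spots of either probe orientation.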
row,Sequence,gcPBM binding intensity (ln)
1,AATCACAACGAACACACACACAAAAAAAAAAAAAAA [CACACA_site6790],8.14 ± 0.53
2,ATATATATATCTAATTGTACATATTTTATAAATAAG [XGTACX_site4840],9.375 ± 0.064
3,AAATACTGATTTGGTTGTACATGTGCACTATATAAC [XGTACX_site3795],9.19 ± 0.2
4,AAAAATTAAATGTACACACACCTTAAACAATGTCAT [CACACA_site6958],8.39 ± 0.38
5,TATAATCTAACATAATGTACATGTATATGCACTTTA [XGTACX_site369],8.52 ± 0.042
6,ATAAATATATTTATATGTACATATAATTTTACATAT [XGTACX_site5440],8.89 ± 0.37
7,TCCACATTAATGTAATGTACAAAATTAGAAAATAAA [XGTACX_site6287],8.62 ± 0.39
8,AATATAAATACTCCTACACACATATAAATATAAATA [CACACA_site7419],8.45 ± 0.39
9,TTTTGATTAAGTGAATTTTTTTATTTATATAAATAT [TGCATGCA_negctrl_site479],8.26 ± 0.46
10,TACGAATTAAAAAAGAGTACAAATAAAATATCTACA [XGTACX_site7412],8.41 ± 0.35
11,CATACATACATATATACACACATATATAATAATATA [CACACA_site2678],8.51 ± 0.28
12,TTTTAAACACCAATCAAAAAAATATAAATATAAATA [TGCATGCA_negctrl_site552],8.39 ± 0.45
13,AATTAGCTCAAAGGTTGTACAAATATATTTTAATGG [XGTACX_site2352],8.7 ± 0.45
14,TCCGTATATTTATACGCATGCATTATGAACATTGTT [TGCATGCA_site613],9.25 ± 0.099
15,AAATTTTTTTTTGTCATATGATGTTTGAACCCAAAT [CACACA_negctrl_site1659],8.48 ± 0.66
16,AAAAAAAATAATTTGCGTACATAAAAATTTATAGGA [XGTACX_site3016],8.64 ± 0.25
17,GGATTACAAATAGGTTGTACGTTTTTTTTTTTTTCT [XGTACX_site3605],8.51 ± 0.46
18,ATGTAGACTGAAACCACACACACATATATATATATA [CACACA_site606],10.1 ± 0.26
19,TTACATTGTAAAAAGTGTACATATAATTTAATTAAT [XGTACX_site1834],8.61 ± 0.33
20,TCATATGTGAAACACACACACACACCCAAAAAAACA [CACACA_site3247],8.68 ± 0.52
21,TGTTTCTTATTTTTTTCACACACTAATCATTTCAAA [CACACA_site8695],8.82 ± 0.52
22,ATTATGTTATTATTTTGTACACATAAATAATACGTT [XGTACX_site816],8.61 ± 0.35

row,Sequence,gcPBM binding intensity (ln)
1,GAACAAAAATACTTATGTACACATTAGCAAGGAAAA [XGTACX_site5622],8.74 ± 0.41
2,ATCTGAAAAATTAATAGTACAATTAATAATTAAACC [XGTACX_site8523],8.72 ± 0.3
3,TATACGCATATATACACACACATATATATATATATA [CACACA_site3416],9.92 ± 0.44
4,AAACAAAAAAGAAGCACACATATATATATATATATG [CACACA_site2456],8.86 ± 0.25
5,AACAAACAAATAGTTTATTTTGATTTTTTTAAAAAT [CACACA_negctrl_site693],7.93 ± 0.47
6,TGTTAATTTCATTTTCTACACACCTATCCTTTTTTT [CACACA_site8157],8.88 ± 0.47
7,ACAAATAAATATTCGCGTACTTATATAATATTACGA [XGTACX_site6428],8.61 ± 0.3
8,AAAAAAAATATCCGACGTACTATTTTCGTAGAAATA [XGTACX_site6292],8.27 ± 0.44
9,AAAAAAAAAAAAAAAAAAAAAAAAATCACACATTGG [TGCATGCA_negctrl_site412],9.1 ± 0.11
10,TTTTGGATGTATTATACATGCATATTATTATAATAT [TGCATGCA_site997],8.72 ± 0.54
11,TGTACAACAATTTTTGCACACACCAAAACATAAAAT [CACACA_site1598],8.82 ± 0.36
12,AAAAAAAAAAAATAAAGTACTAAATAATACATTATA [XGTACX_site6203],8.13 ± 0.33
13,AGAAAAGAAATTAAATGTACACAACTATAACCAAAT [XGTACX_site8084],8.98 ± 0.35
14,TTTTATAAAATATAATATAATAATATATGTATAATA [CACACA_negctrl_site1788],8.12 ± 0.42
15,ATATATCTACAAATATGTACACACACACATATATAT [XGTACX_site1075],8.77 ± 0.38
16,AATAAAAAATATAACACAAATATGTATATATATATA [TGCATGCA_negctrl_site245],9.81 ± 0.34
17,ACATATAAAATGTATACACACAAATATTACATATAT [CACACA_site1472],8.42 ± 0.31
18,CAAAAAAAAAAAAAAAATAAATAAAGGAAATAAAAA [CACACA_negctrl_site20],8.4 ± 0.64
19,AACCAATTATATTTACGTACGTACGGTTTTTTATAT [XGTACX_site1291],9.03 ± 0.47
20,TTCTCAAAGAAGAAAAAGTTTTTTTAATTTTTCTTT [XGTACX_negctrl_site543],8.05 ± 0.45
21,ATATATTAATATACTCGTACATATTCTTATTGTGTA [XGTACX_site3728],8.54 ± 0.39
22,AATATATTTTTTTTTTGTACATATTGTAAAATAATA [XGTACX_site6805],8.42 ± 0.44

row,Sequence,gcPBM binding intensity (ln)
1,GTGTAGTTAAAAAAAAGTACAGATTTTTTTTTTTTT [XGTACX_site849],8.43 ± 0.092
2,ATAAGAACGTCTATGTGTACGCAGCAAAACTGAGTT [XGTACX_site6385],8.44 ± 0.24
3,ATAGAATATTGATATTGTACGTTATCTTAAAACAAT [XGTACX_site1702],8.54 ± 0.33
4,AAAAAAAAAAAAACAAGTACAAAGGATAGAAAAAAA [XGTACX_site4133],8.77 ± 0.38
5,CACATTTAGAAATAGTTTTATTTTGTATATTCTATT [CACACA_negctrl_site1382],8.24 ± 0.5
6,GTATGTGTATGTGTATGTACATATGTATGTATAAAA [XGTACX_site8191],9.07 ± 0.099
7,TTTTGTATATATCACATTAAAAGAAAAAAATATATG [GTGCAC_negctrl_site120],8.33 ± 0.33
8,TATACATTTATGTACACACACATATCTGTATATTTA [CACACA_site5617],8.35 ± 0.31
9,TATATATATTTCCAGTGTACTTATTTTTTAATCAAT [XGTACX_site8220],8.74 ± 0.27
10,TCCTCAAAAAAATAAAATAATTTATACTTTTTTAAA [GTGCAC_negctrl_site724],7.78 ± 0.5
11,TTTTTTAAATATTAAAAATGGGATCTTATAACATAT [GTGCAC_negctrl_site666],8.21 ± 0.32
12,TGTATAAACCCACGTACACACACTAAGTATATCCAA [CACACA_site1605],8.91 ± 0.41
13,TAAAATATATTGCCAGTGCATAATATATGTAATTAT,8.51 ± 0.11
14,TTATTTTTAACGTACGCACACATATAAATATATTTA [CACACA_site1976],8.82 ± 0.29
15,TAAACAAATAAATAAACACACAATATAGGTATATAT [CACACA_site7739],8.55 ± 0.47
16,AACTAATAAAAAAAAAAAACATTAAACAGGACAAAT [XGTACX_negctrl_site287],8.7 ± 0.59
17,TTGTTTTTAGTTTATACACACCATATTAAAATAATG [CACACA_site5675],8.66 ± 0.44
18,AATAAAATATACTATTGTACATATGGAACTACTTGA [XGTACX_site8928],8.52 ± 0.36
19,ATTTATTATATATAGTGTACGTTCTTAATTATAATT [XGTACX_site7480],8.71 ± 0.28
20,TTGTATTACATAAATGTTCTTTATTATTTGATAAAA [CACACA_negctrl_site903],8.36 ± 0.33
21,TATATAATATATTAATGTACTTAAAATATATTCTAT [XGTACX_site1235],8.12 ± 0.33
22,TTTTTAGGAAAGGCGGCACACATTTATATATTTATT [CACACA_site3672],8.29 ± 0.47

row,Sequence,gcPBM binding intensity (ln)
1,ATAAAATAAATATAACCACACACGAAAGAGAGAGAA [CACACA_site9075],9.07 ± 0.52
2,TTCCAACCAATACAAACATGCATTTGAAAAAATGTA [TGCATGCA_site119],8.55 ± 0.43
3,TTCGCCCTAAATAGAGTGCATTATATATATTAATAT,8.95 ± 0.2
4,CAAAATATATTGAATTGTACATAAAAATAAAAATTA [XGTACX_site4193],8.83 ± 0.71
5,TTTATTTTATCATTTGCACACGCACGCCCACATAAA [CACACA_site353],9 ± 0.23
6,AGCAGTCAGCAGGACAGTACACAGTAGCCAGTAACT [XGTACX_site1999],8.36 ± 0.47
7,ATTTTTTTGGAATTCACACACAAAAAAAAAAATAAA [CACACA_site2081],8.63 ± 0.49
8,AATTAGACATAATATACACACATATATTATATATAT [CACACA_site2691],8.615 ± 0.064
9,TTCAAAAGATATATCGTGCACATATATATGATGAAA,9.35 ± 0.62
10,ATTATTTTATTTATTGGTACGTAATTGTAGATTTCT [XGTACX_site3697],8.64 ± 0.4
11,ATACATTCTTATTACTGTACAGGGTTAATTATTTGT [XGTACX_site948],8.9 ± 0.32
12,TGGAGATAAAATAAAACACACACATATATATATATA [CACACA_site8683],10 ± 0.39
13,GCAAAAACAAACGTCACACATACAAAGGCCGTGTAA [CACACA_site6043],8.42 ± 0.49
14,TAGGTATATAAATAATGTACATATAAACTATATAGA [XGTACX_site2597],8.79 ± 0.5
15,TCCACACAATTTATAACATGCAAAAAGGCAATAATA [TGCATGCA_site773],8.69 ± 0.42
16,ATGTTGAGTATATATACACACATACAGATATATATA [CACACA_site4967],8.62 ± 0.32
17,TATAAGCTAAGTTGTTGTACAAAAAGGAAAAGTATA [XGTACX_site3741],9.03 ± 0.59
18,GAGATAAAATAAAACACACACATATATATATAGAAT [CACACA_site2197],8.69 ± 0.4
19,AAAAAAATCTCCAGTGTGCACAATCACATAATATAT [GTGCAC_site9833],8.96 ± 0.26
20,TGTTACATAAAATGCACACTTTCAAATATGCTAATA [CACACA_site2925],8.31 ± 0.28
21,AAATATAAATATACTCGTACATATATATATATATAT [XGTACX_site6940],10.1 ± 0.41
22,AATATATGGTTTCATGATATTAAATTCAATTTAATG [GTGCAC_negctrl_site370],8.16 ± 0.47
